Assay results: PMC13083723 (Patterns, 2026)
The campaign covered roughly 5,400 compounds. About 190 (3.5%) showed an effect of 50% or more. The list shows a part of the results.

system: Vero-E6; assay: primary screen, phospholipidosis by LipidTOX staining; higher = more effect of the substance; conditions: 10 µM
Method in brief: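 Drug-induced phospholipidosis detected with HCS LipidTOX Red reagent in Vero-E6 cells. Compounds tested at 10 μM, with amiodarone (10 μM) as positive control and DMSO (0.1 v/v %) as vehicle.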

Structure (SMILES) | result_ITMP [%]
Nc1ncnc2c1ncn2[C@@H]1O[C@H](C[C@@H](N)CC[C@H](N)C(=O)O)[C@@H](O)[C@H]1O | -2.59
COc1ccccc1NC(=O)OCC1CCN(C(=O)OC(C)(C)C)CC1 | -3.83
S=P(N1CC1)(N1CC1)N1CC1 | -8.28
COc1cc(N)c(Cl)cc1C(=O)NC1CCN(Cc2ccccc2)CC1 | 18.4
COc1ccsc1CNCC[C@@]1(c2ccccn2)CCOC2(CCCC2)C1 | -2.63
CC(=O)OCC1=C(C(=O)[O-])N2C(=O)[C@@H](NC(=O)CSc3ccncc3)[C@H]2SC1 | -1.36
CC12CCC(C(=O)N(CCCCN3CCN(c4ccccn4)CC3)C1=O)C2(C)C (stereo not shown) | -4.12
CC(=O)c1ccc2c(c1)[C@@H]1C=CC[C@@H]1[C@H](c1cc3c(cc1Br)OCO3)N2 | 14.3
c1cnc(NCc2ccc(CNc3ncccn3)cc2)nc1 | 0.01
CNC(=O)CN1CCC(Oc2cc3c(Nc4cccc(Cl)c4F)ncnc3cc2OC)CC1 | 27.2
Cc1cn(C[C@H](N)C(=O)O)c(=O)n(Cc2ccsc2C(=O)O)c1=O | -2.31
CCN(CC)C(=O)N[C@H]1C[C@@H]2c3cccc4[nH]cc(c34)C[C@H]2N(C)C1 | 2.65
CCN1CCCC1CNC(=O)c1cc(S(=O)(=O)CC)c(N)cc1OC (stereo not shown) | -1.95
Nc1nc(N)nc(-c2cc(Cl)ccc2Cl)n1 | -2
CCCS(=O)(=O)Nc1ccc(F)c(C(=O)c2c[nH]c3ncc(Cl)cc23)c1F | 2.11
Cc1c(N(C)CS(=O)(=O)[O-])c(=O)n(-c2ccccc2)n1C | -4.64
Cc1ccc(NC(=O)Nc2cc(C(F)(F)F)ccc2F)cc1Nc1ccc2c(c1)NC(=O)/C2=C\c1ccc[nH]1 | -8.35
CC(C)(NS(=O)(=O)c1ccc(Oc2ccc(F)cc2)cc1)C(=O)NO | -0.94
CC(CN1c2ccccc2Sc2ccccc21)N(C)C (stereo not shown) | 55.4
CCOc1cc(N2CCC(O)CC2)ccc1Nc1ncc2c(n1)N(C)c1ccccc1C(=O)N2C | 4.79
O=C(CN1C2=NCCN2c2ccccc21)c1ccc(-c2ccccc2)cc1 | 53.9
S=C=Nc1cccc(NC(=S)NCCCCNC(=S)Nc2cccc(N=C=S)c2)c1 | -6.72

Structure (SMILES) | result_ITMP [%]
CN(C)[C@@H]1CCc2[nH]c3ccc(NC(=O)c4ccc(F)cc4)cc3c2C1 | 32.9
COc1cc(C[C@H]2C(=O)OC[C@@H]2Cc2ccc(OC)c(OC)c2)ccc1O | -0.48
Cc1c[nH]c(-c2cnc(NCCNc3ccc(C#N)cn3)nc2-c2ccc(Cl)cc2Cl)n1 | 13.9
C[C@@]12CC[C@@H]3[C@@](CC[C@H]4[C@@]3(C)CCC[C@@]4(C)C(=O)O)(CC1=O)C2 | -11
NS(=O)(=O)c1cc2c(cc1C(F)(F)F)NC(Cc1ccccc1)NS2(=O)=O (stereo not shown) | -8.79
C[C@@H]1CN(CC(=O)Nc2ccc3c(c2)Cc2cccc(-c4cc(=O)cc(N5CCOCC5)o4)c2S3)C[C@H](C)O1 | 4.24
CC1(C)S[C@@H]2[C@H](NC(=O)Cc3ccccc3)C(=O)N2[C@H]1C(=O)[O-] | -4.24
Cc1cc(CCC[C@H](CC(=O)NO)C(=O)N[C@H](C(=O)N[C@H](C)c2ccccc2)C(C)(C)C)ccc1-c1ccccc1 | 1.87
CC(=O)N1CC[N+](C)(C)CC1 | 0.9
CO[C@H]1CC[C@H](N2C(=O)CNc3ncc(-c4ccc(C(C)(C)O)nc4)nc32)CC1 | -1.12
CCc1c(-c2ccccc2)c(-c2ccccc2)nn1-c1ccccc1-c1cccc(OCC(=O)O)c1 | -1.25
CC(C)[C@H](CO)Nc1nc(Nc2cc(N)cc(Cl)c2)c2ncn(C(C)C)c2n1 | 7.75
COc1cc2c(c(OC)c1OC)-c1ccc(OC)c(=O)cc1[C@@H](NC(C)=O)CC2 | 6.86
O=C(c1ccc(OCCN2CCCCC2)cc1)c1c(-c2ccc(O)cc2)sc2cc(O)ccc12 | 74.6
O=C1c2ccccc2-c2n[nH]c3cccc1c23 | -1.5
CNC(=O)c1ccc(N2C(=S)N(c3cnc(C#N)c(C(F)(F)F)c3)C(=O)C23CCC3)cc1F | 0.9
N#C[C@H](O[C@@H]1O[C@H](CO[C@@H]2O[C@H](CO)[C@@H](O)[C@H](O)[C@H]2O)[C@@H](O)[C@H](O)[C@H]1O)c1ccccc1 | -2.54
CC[C@@H](CO)NC(=O)[C@@H]1C=C2c3cccc4c3c(cn4C)C[C@H]2N(C)C1 | 13.3
CN(C(=O)/C=C/c1ccoc1)[C@@H]1CC[C@@]2(O)[C@H]3Cc4ccc(O)c5c4[C@@]2(CCN3CC2CC2)[C@H]1O5 | -1.52
COc1ccnc(CS(=O)c2nc3ccc(OC(F)F)cc3[n-]2)c1OC (stereo not shown) | -1.1
CC(C)CNc1nc(-c2cccc3ncccc23)cn2c(-c3ccc(C(=O)NC4CC4)cc3)cnc12 | -2.15
N[C@@H](C(=O)O)c1ccc(O)c(C(=O)O)c1 | -1.84

Structure (SMILES) | result_ITMP [%]
CCn1cc(C(=O)O)c(=O)c2cc(F)c(N3CCNCC3)cc21 | -0.64
C[C@@H]1CCC[C@H](C)N1NC(=O)c1ccc(Cl)c(S(N)(=O)=O)c1 | 3.56
c1ccc(N2CCN(CCCOc3ccc4c(c3)OCO4)CC2)cc1 | -1.49
C[C@H](/C=C/[C@H](C)C(C)(C)O)[C@H]1CC[C@H]2/C(=C/C=C3C[C@@H](O)C[C@H](O)C3)CCC[C@]12C | -0.26
CN1C(=O)CN=C(c2ccccc2)c2cc(Cl)ccc21 | -2.23
Cc1nc2c(OCc3ccccc3)cccn2c1CC#N | -0.79
CCOC(=O)C1=C(C)NC(C)=C(C(=O)OC)C1c1cccc([N+](=O)[O-])c1 (stereo not shown) | -6.48
Nc1ncnc2c1c(-c1cccc(OCc3ccccc3)c1)cn2C1CC(CN2CCCC2)C1 (stereo in doubt) | 41.5
C[N+](C)(C)CCOP(=O)([O-])OP(=O)([O-])OC[C@H]1O[C@@H](n2ccc(N)nc2=O)[C@H](O)[C@@H]1O | 10.2
Cn1cnc2nc(O)nc(O)c21 | 0.82
CCC[C@@H]1C[C@@H](C(=O)N[C@H]([C@H]2O[C@H](SC)[C@H](O)[C@@H](O)[C@H]2O)[C@H](C)O)N(C)C1 | -3.49
CC(C)C[C@H](NC(=O)CNC(=O)c1cc(Cl)ccc1Cl)B1OC(=O)CC(CC(=O)O)(C(=O)O)O1 (stereo partly shown) | -5.86
CCCC[C@]1(CC)CS(=O)(=O)c2cc(CNC(CC(=O)O)CC(=O)O)c(OC)cc2[C@@H](c2ccccc2)N1 | -0.48
CC(C)(C)c1cc(/C=C(\C#N)C(N)=S)cc(C(C)(C)C)c1O | -2.37
Cc1cn2c(N)c(Cl)cc(C(=O)NCC3CCN(CC(C)C)CC3)c2n1 | -1.6
CCC(=O)NCC[C@@H]1CCc2ccc3c(c21)CCO3 | 1.73
COC1=CC(=O)C[C@@H](C)[C@]12Oc1c(Cl)c(OC)cc(OC)c1C2=O | 3.46
C[C@H](NC(=O)/C(C#N)=C/c1ccc(O)c(O)c1)c1ccccc1 | -1.75
O=S(=O)(NCCNC/C=C/c1ccc(Br)cc1)c1cccc2cnccc12 | 60.8
COc1ccc(-c2coc3cc(O)cc(O)c3c2=O)cc1 | -5.25
O=C(O)/C=C/c1ccc(-c2ccc(O)c(C34CC5CC(CC(C5)C3)C4)c2)cc1 | 0.68
CC(C)CCNc1ncccc1C(=O)N1CCN(Cc2ccccc2)CC1 | 1.41

Structure (SMILES) | result_ITMP [%]
COc1ccccc1N1CCN(CCN2C(=O)CC3(CCCC3)CC2=O)CC1 | 5.3
CCN(CC)CCCCC1CCN(CC(=O)N2c3ccccc3C(=O)Nc3cccnc32)CC1 | -2.95
OCC(O)CN1CCN(c2ccccc2)CC1 (stereo not shown) | -1.7
O=S(=O)([O-])CCS | -2.99
COc1cccc(OCCCN)c1-c1cc(Nc2cnc(C#N)cn2)n[nH]1 | 5.84
Fc1ccc(-n2cc(CCCCN3CCC4(CC3)OCc3ccccc34)c3ccccc32)cc1 | 26.9
c1ccc2c(c1)OCC(C1=NCCN1)O2 (stereo not shown) | 6.24
CN(C)[C@@H](CCOc1cccc2ccccc12)c1ccccc1 | 43.4
CN(C)CCCC1(c2ccc(F)cc2)OCc2cc(C#N)ccc21 (stereo not shown) | 19.3
O=S(=O)(OC[C@H]1O[C@@](COS(=O)(=O)[O][Al]([OH])[OH])(O[C@H]2O[C@H](COS(=O)(=O)[O][Al]([OH])[OH])[C@@H](OS(=O)(=O)[O][Al]([OH])[OH])[C@H](OS(=O)(=O)[O][Al]([OH])[OH])[C@H]2OS(=O)(=O)[O][Al]([OH])[OH])[C@@H](OS(=O)(=O)[O][Al]([OH])[OH])[C@@H]1OS(=O)(=O)[O][Al]([OH])[OH])[O][Al]([OH])[OH] | 6.9
c1ccc(C2CNCc3ccccc32)cc1 (stereo not shown) | 11.1
NC(C(=O)O)c1cc(O)ccc1Cl (stereo not shown) | -1.5
COC[C@@H](c1ccc(C(F)(F)F)cc1)N1CCN(C2(C)CCN(C(=O)c3c(C)ncnc3C)CC2)C[C@@H]1C | 2.88
O=C(O)CNC(=O)C(CS)Cc1ccccc1 (stereo not shown) | -1.4
CCCCCCOc1cc2c(cc1N(C)c1ncc(C(=O)O)cn1)C(C)(C)CCC2(C)C | -1.31
O=C(CCCc1ccc(-c2ccccc2F)cc1)Nc1ccc(O)cc1 | 1.16
CN[C@@H]1CCc2[nH]c3ccc(C(N)=O)cc3c2C1 | -6.83
COc1ccc(CC2NCCc3cc(OC)c(OC)cc32)cc1OC (stereo not shown) | -1.72
CC(C)c1noc(N2CCC(COc3ccc(-c4ccc(S(C)(=O)=O)cc4)nc3)CC2)n1 | -4.06
